Here are results for 24 compounds from the supplement of paper PMC8007513.

Where a name gives a salt, the structure may show the parent alone. ± gives the standard error. Out of some 1,300 compounds screened, about 130 (10%) showed an effect of 50% or more. This is a selection; strong and weak results do not stand in their true shares.

For the test, the system named is Trichoderma virens ATCC 9645. Description: growth yield (OD600) with compound + IPBC relative to untreated control; higher = less growth inhibition. The note with it: compound concentration: 100 uM, IPBC concentration: 200 ng/ml. The method in brief:
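Plates were read for OD600 at 40 h and 72 h after Trichoderma virens ATCC 9645 spores (15,000 spores ml^−1 in potato dextrose broth) were grown at 30 °C with library compounds at 100 μM final, with or without a biocide at 200 ng ml^−1. Growth is stated relative to the control with neither agent, as the mean of duplicate screens.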

Take `Nc1ccn([C@@H]2O[C@H](CO)[C@@H](O)C2(F)F)c(=O)n1` [Gemcitabine] + CCCCNC(=O)OCC#CI [3-iodo-2-propynyl butylcarbamate (IPBC)]: the growth yield stood at 105 ± 1.9% (40 h) and 102.88 ± 0.1% (72 h).
With `CN1C(=O)CC(c2ccccc2)C1=O` (configuration not stated) [Phensuximide] + CCCCNC(=O)OCC#CI [3-iodo-2-propynyl butylcarbamate (IPBC)], the growth yield (40 h) was 92.9 ± 6.2% and the growth yield (72 h) came out at 94.3 ± 4.9%.
As to `CN(C)CCN(Cc1ccccc1)c1ccccn1` [Tripelennamine hydrochloride] + CCCCNC(=O)OCC#CI [3-iodo-2-propynyl butylcarbamate (IPBC)], the growth yield reads like this: (40 h) 95 ± 3.5%; (72 h) 95.2 ± 1.9%.
The corresponding values for `CC1CNc2c(cccc2S(=O)(=O)N[C@@H](CCCNC(=N)N)C(=O)N2CC[C@@H](C)C[C@@H]2C(=O)O)C1` (some centres not stated) [Argatroban] + CCCCNC(=O)OCC#CI [3-iodo-2-propynyl butylcarbamate (IPBC)] are 86.2 ± 4.3% and 84.4 ± 4.7%.
For `CC(=O)O[C@@]12CO[C@@H]1C[C@H](O)[C@@]1(C)C(=O)[C@H](O)C3=C(C)[C@@H](OC(=O)[C@H](O)[C@@H](NC(=O)OC(C)(C)C)c4ccccc4)C[C@@](O)([C@@H](OC(=O)c4ccccc4)[C@H]21)C3(C)C` [Docetaxel] + CCCCNC(=O)OCC#CI [3-iodo-2-propynyl butylcarbamate (IPBC)], the growth yield runs as follows: (40 h) 118 ± 4.8%; (72 h) 108 ± 1.5%.
In the same order, the values of `N=C(N)NC(=O)Cc1c(Cl)cccc1Cl` [Guanfacine hydrochloride] + CCCCNC(=O)OCC#CI [3-iodo-2-propynyl butylcarbamate (IPBC)] are 79.9 ± 4.3% and 90.7 ± 3.7%.
As to `CCC(=O)O[C@@](Cc1ccccc1)(c1ccccc1)[C@@H](C)CN(C)C` [Levopropoxyphene napsylate] + CCCCNC(=O)OCC#CI [3-iodo-2-propynyl butylcarbamate (IPBC)], the growth yield was 85.1 ± 3.2% (40 h) and 90.6 ± 1.9% (72 h).
Take `CC(=O)[C@H]1CC[C@H]2[C@@H]3CCC4=CC(=O)CC[C@]4(C)[C@H]3CC[C@]12C` [Progesterone] + CCCCNC(=O)OCC#CI [3-iodo-2-propynyl butylcarbamate (IPBC)]: the growth yield runs as follows: (40 h) 51 ± 3%; (72 h) 77.5 ± 3.9%.
Take `CN(C)CC/C=C1/c2ccccc2Sc2ccc(Cl)cc21` [Chlorprothixene hydrochloride] + CCCCNC(=O)OCC#CI [3-iodo-2-propynyl butylcarbamate (IPBC)]: the growth yield (40 h) came out at 24.5 ± 7.9%.
Take `COc1ccc2[nH]c([S+]([O-])Cc3ncc(C)c(OC)c3C)nc2n1` (configuration not stated) [Tenatoprazole] + CCCCNC(=O)OCC#CI [3-iodo-2-propynyl butylcarbamate (IPBC)]: the growth yield amounted to 99.91 ± 0.48% (40 h) and 104 ± 0.42% (72 h).
In the same order, the values of `CN(C)CCOC(c1ccccc1)c1ccccc1` [Diphenhydramine hydrochloride] + CCCCNC(=O)OCC#CI [3-iodo-2-propynyl butylcarbamate (IPBC)] are 87.2 ± 2.1% and 94 ± 2.1%.
With `C[C@]12CC[C@@H]3c4ccc(O)cc4CC[C@H]3[C@@H]1CC[C@@H]2O` [Estradiol-17 beta] + CCCCNC(=O)OCC#CI [3-iodo-2-propynyl butylcarbamate (IPBC)], the growth yield reads like this: (40 h) 70.68 ± 0.16%; (72 h) 76.98 ± 1.4e-14%.
Consider `CC[C@@]1(O)C(=O)OCc2c1cc1n(c2=O)Cc2cc3ccccc3nc2-1` [Camptothecine (S,+)] + CCCCNC(=O)OCC#CI [3-iodo-2-propynyl butylcarbamate (IPBC)], for which the growth yield is 69.3 ± 1.6% (40 h) and 81.2 ± 1.7% (72 h).
In the case of `CC(=O)OC1CN2CCC1CC2` (configuration not stated) [Aceclidine Hydrochloride] + CCCCNC(=O)OCC#CI [3-iodo-2-propynyl butylcarbamate (IPBC)], the growth yield turned out to be 80.85 ± 0.79% (40 h) and 86.84 ± 0.21% (72 h).
In the same order, the values of `CC1=C(/C=C/C(C)=C/C=C/C(C)=C/C(=O)O)C(C)(C)CCC1` [Retinoic acid] + CCCCNC(=O)OCC#CI [3-iodo-2-propynyl butylcarbamate (IPBC)] are 99.1 ± 7.6% and 104 ± 4.2%.
The corresponding values for `NC(=O)c1cc[n+](CC2=C(C(=O)[O-])N3C(=O)[C@@H](NC(=O)[C@@H](c4ccccc4)S(=O)(=O)O)[C@H]3SC2)cc1` [Cefsulodin sodium salt] + CCCCNC(=O)OCC#CI [3-iodo-2-propynyl butylcarbamate (IPBC)] are 90.06 ± 0.79% and 95.12 ± 0.52%.
For the compound `CC(=O)Oc1ccccc1C(=O)O` [Acetylsalicylic acid] + CCCCNC(=O)OCC#CI [3-iodo-2-propynyl butylcarbamate (IPBC)], the growth yield stood at 107 ± 4.9% (40 h) and 104 ± 5.5% (72 h).
With `N=C(N)NS(=O)(=O)c1ccc(N)cc1` [Sulfaguanidine] + CCCCNC(=O)OCC#CI [3-iodo-2-propynyl butylcarbamate (IPBC)], the growth yield is 89.6 ± 2.5% (40 h) and 92.4 ± 2.6% (72 h).
For the compound `COc1cc2nc(N(C)CCCNC(=O)C3CCCO3)nc(N)c2cc1OC` (configuration not stated) [Alfuzosin hydrochloride] + CCCCNC(=O)OCC#CI [3-iodo-2-propynyl butylcarbamate (IPBC)], the growth yield runs as follows: (40 h) 89.9 ± 4.8%; (72 h) 93.8 ± 5.2%.
With `C[N+](C)(C)CCCCCCCCCC[N+](C)(C)C` [Decamethonium bromide] + CCCCNC(=O)OCC#CI [3-iodo-2-propynyl butylcarbamate (IPBC)], the growth yield came to 105 ± 6.7% (40 h) and 101 ± 5.6% (72 h).
For the compound `C#C[C@]1(OC(C)=O)CC[C@H]2[C@@H]3CCC4=CC(=NO)CC[C@@H]4[C@H]3CC[C@@]21CC` (mixture of isomers) [Norgestimate] + CCCCNC(=O)OCC#CI [3-iodo-2-propynyl butylcarbamate (IPBC)], the growth yield turned out to be 113 ± 5.9% (40 h) and 115 ± 2.8% (72 h).
As for `C[N+]1(C)[C@@H]2CC[C@H]1C[C@@H](OC(=O)C(CO)c1ccccc1)C2` (some centres not stated) [Methylatropine nitrate] + CCCCNC(=O)OCC#CI [3-iodo-2-propynyl butylcarbamate (IPBC)], the growth yield is, setting by setting: (40 h) 94.8 ± 4.6%; (72 h) 95 ± 4%.
Consider `CC(=O)O[C@]1(C(C)=O)CC[C@H]2[C@@H]3C=C(Cl)C4=CC(=O)[C@@H]5C[C@@H]5[C@]4(C)[C@H]3CC[C@@]21C` [Cyproterone acetate] + CCCCNC(=O)OCC#CI [3-iodo-2-propynyl butylcarbamate (IPBC)], for which the growth yield runs as follows: (40 h) 98.8 ± 10%; (72 h) 102 ± 6.8%.
In the same order, the values of `Clc1ccc(CO/N=C(\Cn2ccnc2)c2ccc(Cl)cc2Cl)c(Cl)c1` [Oxiconazole Nitrate] + CCCCNC(=O)OCC#CI [3-iodo-2-propynyl butylcarbamate (IPBC)] are 3.49 ± 0.32% and 2.1 ± 0.21%.
